Results published in the supplement of paper PMC11417369.
This is one part of the list.

The sequences below were run on PfSIP2 AP2 domain 1 (GST-tagged) (assay: gcPBM binding intensity (ln(normalized median fluorescence intensity)); higher = stronger DNA binding).
Summary of the method: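 In this array assay, P. falciparum DNA-binding domains with a GST tag, expressed in E. coli, were applied for 1 h to primer-extended double-stranded 36-bp intergenic genomic probes and negative controls on an Agilent 4 × 180k array. Bound protein was visualised with Alexa488 anti-GST antibody at 488 nm. Binding intensity is the highest Masliner-normalised natural-log median intensity across replicate spots of either probe orientation.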

Sequence	gcPBM binding intensity (ln)
AATTTTTTGAATAATTGTACATATTTGGTTAAATAT [XGTACX_site3612]	6.97
TTACTAAGAAGGATTTATTTTATAAAAATATTTATT [XGTACX_negctrl_site549]	6.53
ATATTTTATACTTGCACACAAAATATATTAGAATGT [CACACA_site1985]	7.27
TTTTTTTTTTTTTTTGCACACTTAAATTTGGTGGGG [CACACA_site2344]	7.67
CACGCGCACGAACACACACACACACGCATATAAATA [CACACA_site7103]	7.29
ATATTATTTTATTTTTGTACAGATATCTTTAAAAAA [XGTACX_site3734]	7.22
TACAGATAAATATACATACATATATATATATATATA [XGTACX_negctrl_site182]	9.01
TTATTAAAAATGGTATGTACGCACATAATATATATA [XGTACX_site3230]	7.73
AACATCATCTCTCCACAACAACAAAAAAAAAAATAC [CACACA_negctrl_site311]	7.27
AATACATACATACATACATGCATATATATATATATA [TGCATGCA_site462]	9.8
TGTTTATGTTTACATGTGCGCATTACAGAAAAAAAA [GTGCAC_site9669]	8.92
TATTTTTATTGGTGAATACACACGTATATATATATT [CACACA_site2401]	7.07
TTTTTATTTAAAAGTAGTACAAGGGTTATTATTAAC [XGTACX_site1555]	7.42
ACATGTATACTTTTTACGAAAAAAAAAAAAAAAAAA [CACACA_negctrl_site1638]	6.89
ATTTCGTAATTTATATCACACACATATATATATAAT [CACACA_site9021]	7.23
ATCATTTTTATAAATTGTACAAATATTTTTTATACA [XGTACX_site7551]	6.95
CATATTATTTATATTTGTACACAGCGATATGAAATA [XGTACX_site7717]	7.1
CTTACATAAAATATCACACACATAAAAAAACAATAT [CACACA_site1901]	7.26
TATATATATATATATGTGCACATATATATGATATTA	9.27

Sequence	gcPBM binding intensity (ln)
TTATATAAATATAAGGTGCTGGGGTTTATTACATAT [GTGCAC_site9909]	7.21
CACCAATTCATATGCACACACATCTGCATATTATAG [CACACA_site6925]	7.56
ATATCGCACGTTTGAAGTACATAAAAACGATTAATA [XGTACX_site7684]	7.47
TATAAAATATAAATTTGTACATATAAAATATTTTAT [XGTACX_site7462]	7.15
TTTTTTAAAATATAAAATATGTACAAATATGTTGAA [GTGCAC_negctrl_site379]	7.36
TAATAGTTATAAAATACACACCAGGCATGATAAATG [CACACA_site4335]	6.71
AATATTTTAAAAAAATGTACTTTTAACCCTTATTGG [XGTACX_site3490]	6.8
ATATATGGGTAGTATACACACTGTATATTTAGGAAT [CACACA_site7357]	6.91
GTATGAAAAAAATATGCATGCTAAATAATAAATGTT [TGCATGCA_site352]	6.93
TATATATATATACATACATATAAAGTTACATAAACA [CACACA_negctrl_site432]	9.43
GAACAAACAAAGAAAGAACACACATACACAATATAC [CACACA_site8918]	7.13
TAGATTTTTTTACATTGTACATATTTTTTCTTATAG [XGTACX_site293]	6.87
AAAACAAACGGACACACACACATATATATATATATA [CACACA_site5924]	9.72
ACATGTAAATTTACATGTACATGTAACACTTAATAT [XGTACX_site4575]	7.05
TACATATTTACTATCACACACACGATATATATAAAT [CACACA_site1242]	7.36
ATACGAAAAAATAGACGTACTATGAAATAATAATTT [XGTACX_site8387]	6.87
TACTTAAAAAAAAAAAAAATAAATATTATGTATTAT [CACACA_negctrl_site138]	6.64
TAATATTTTAATTGTGTGCACATTAATATTATAAAA	9.3
TTTAGTGAGTTTGTTGTGCACTGAAAAAATTACAAT	10.5

Sequence	gcPBM binding intensity (ln)
TATATTATTTTTTGTGGTACATGTATTTTTACCTAA [XGTACX_site4348]	7.48
ATATGCTATTAATTATGTACATATATATATATATAT [XGTACX_site4901]	9.69
GTACATTATATATATACACACATACATAATAAAGAA [CACACA_site5528]	7.33
GGACTATACAGTTATACACACACATATATATATAAT [CACACA_site7991]	7.13
ATGCATACACTTATATGTACACATTTACATATTATT [XGTACX_site2841]	7.09
AATAAATAAATATATTGTACATATATATATATATAT [XGTACX_site8627]	9.67
CGAAAGGAAATATAACGTACATAAGATTATATTCAC [XGTACX_site3868]	6.88
ATGAACAAGGGGCACACACACATTATGACTAATTTA [CACACA_site3204]	7.6
TATTAAAAGAAAAAAAAAAAAAAATTAATACATATA [XGTACX_negctrl_site582]	6.62
TATTAATATATAGTAGTGCAATAAAGATATACTGAA	8.3
AACATACTCACGAACATACACACGGACATACATACG [CACACA_site603]	7.11
CTTAATTTTTTTTAATGTACATACATATAAACCTTT [XGTACX_site2233]	7.15
AGTTATATGTACTACACACGTACACAAAATAAGATA [CACACA_site3719]	7.71
AAAATTAAAAATAACACACACATATTTATATTTATA [CACACA_site7329]	6.87
AAGGAGAAATATTGCACACGTGCAAAATGGTATGAG [CACACA_site259]	9.43
TATTCTTTTATGAATACACACATATACGAAAATATT [CACACA_site6585]	6.95
AAATGTTAAAAAGAGAAAAACAATAAAAAACAATTA [CACACA_negctrl_site1044]	6.58
AAAAGGTTATCAAAATGTACGAAATGTTACAAAAAT [XGTACX_site6215]	7.01
AGGTGTCATAGATGCACACAAAAGTAACACGCACCT [CACACA_site4418]	9.65
